Data: a collection of fitness landscapes (doi:10.1126/science.1257360)
This is one part of the list.

B1: PhoQ; a variant is named by its letters at X, in order, P23837 (parent)
chain: MKKLLRLFFPLSLRVRFLLATAAVVLVLSLAYGMVALIGYSVSFDKTTFRLLRGESNLFYTLAKWENNKLHVELPENIDKQSPTMTLIYDENGQLLWAQRDVPWLMKMIQPDWLKSNGFHEIEADVNDTSLLLSGDHSIQQQLQEVREDDDDAEMTHSVAVNVYPATSRMPKLTIVVVDTIPVELKSSYMVWSWFIYVLSANLLLVIPLLWVAAWWSLRPIEALAKEVRELEEHNRELLNPATTRELTSLVRNLNRLLKSERERYDKYRTTLTDLTHSLKTPLXXLQXXLRSLRSEKMSVSDAEPVMLEQISRISQQIGYYLHRASMRGGTLLSRELHPVAPLLDNLTSALNKVYQRKGVNISLDISPEISFVGEQNDFVEVMGNVLDNACKYCLEFVEISARQTDEHLYIVVEDDGPGIPLSKREVIFDRGQRVDTLRPGQGVGLAVAREITEQYEGKIVAGESMLGGARMEVIFGRQHSAPKDE

Variants of: B1
Assay: enrichment ratio after two sorts for PhoP signalling (ratio (wild type AVST 3.29)); higher = more functional
Settings: with PhoP (E. coli)

Row | Variant | enrichment ratio
1 | GHES | ≤ 0.25
2 | GAIN | 5.96
3 | YNGL | ≤ 0.25
4 | PVYS | ≤ 0.25
5 | LHSE | ≤ 0.25
6 | IQPN | ≤ 0.25
7 | DKSH | ≤ 0.25
8 | GVSS | 0.963
9 | SSKT | ≤ 0.25
10 | NHHV | ≤ 0.25
11 | YHNK | ≤ 0.25
12 | VWCQ | ≤ 0.25
13 | QSQC | ≤ 0.25
14 | LQVC | ≤ 0.25
15 | WVMP | ≤ 0.25
16 | WNGW | 8.14
17 | FYKH | ≤ 0.25
18 | TWFC | ≤ 0.25
19 | DYEA | ≤ 0.25
20 | FWCK | ≤ 0.25
21 | RSNS | ≤ 0.25
22 | TYWS | ≤ 0.25
23 | PRYS | ≤ 0.25
24 | TIQC | 0.791

Row | Variant | enrichment ratio
25 | NQKE | ≤ 0.25
26 | LRGG | ≤ 0.25
27 | LVTR | ≤ 0.25
28 | NCMI | ≤ 0.25
29 | YRYV | ≤ 0.25
30 | PDHC | ≤ 0.25
31 | IVWE | ≤ 0.25
32 | TLQA | ≤ 0.25
33 | WGVC | ≤ 0.25
34 | GSLH | 6.16
35 | VHME | ≤ 0.25
36 | YWFA | ≤ 0.25
37 | DDHL | ≤ 0.25
38 | ESTG | ≤ 0.25
39 | VLEC | ≤ 0.25
40 | YYWN | ≤ 0.25
41 | TERR | ≤ 0.25
42 | FQMC | ≤ 0.25
43 | NKIC | ≤ 0.25
44 | MLGC | ≤ 0.25
45 | FMSS | ≤ 0.25
46 | PVDA | ≤ 0.25
47 | FKVR | ≤ 0.25
48 | WGEL | ≤ 0.25

Row | Variant | enrichment ratio
49 | PNKR | ≤ 0.25
50 | ELKQ | ≤ 0.25
51 | FQAC | ≤ 0.25
52 | LGQG | ≤ 0.25
53 | ACCT | 5.15
54 | GHIL | ≤ 0.25
55 | FPTM | ≤ 0.25
56 | TTED | ≤ 0.25
57 | AQWH | ≤ 0.25
58 | WGVR | ≤ 0.25
59 | FIPI | ≤ 0.25
60 | LRHP | ≤ 0.25
61 | SPWF | ≤ 0.25
62 | SFEV | ≤ 0.25
63 | DTNA | ≤ 0.25
64 | IPQT | ≤ 0.25
65 | SPRA | ≤ 0.25
66 | PKGK | ≤ 0.25
67 | WVYH | ≤ 0.25
68 | ENPL | ≤ 0.25
69 | VQIG | ≤ 0.25
70 | WFPY | ≤ 0.25
71 | YWHY | ≤ 0.25
72 | IDLD | ≤ 0.25

Row | Variant | enrichment ratio
73 | WFHV | ≤ 0.25
74 | HERV | ≤ 0.25
75 | VKPY | ≤ 0.25
76 | YDHP | ≤ 0.25
77 | FVVK | ≤ 0.25
78 | EMWC | ≤ 0.25
79 | TCTK | 5.27
80 | FAYP | ≤ 0.25
81 | FSWI | ≤ 0.25
82 | NFRQ | ≤ 0.25
83 | PTTE | ≤ 0.25
84 | SDSA | ≤ 0.25
85 | DSHL | ≤ 0.25
86 | YSHI | ≤ 0.25
87 | HDNN | ≤ 0.25
88 | WPWI | ≤ 0.25
89 | KTTG | ≤ 0.25
90 | FCYR | ≤ 0.25
91 | IKNS | ≤ 0.25
92 | IQWG | ≤ 0.25
93 | FDQN | ≤ 0.25
94 | FEPK | ≤ 0.25
95 | RDDD | ≤ 0.25
96 | TFLW | ≤ 0.25

Row | Variant | enrichment ratio
97 | LFYH | ≤ 0.25
98 | IHFI | ≤ 0.25
99 | MIHD | ≤ 0.25
100 | VNKM | ≤ 0.25
101 | SYSR | ≤ 0.25
102 | GLTM | 9.77
103 | VCVF | ≤ 0.25
104 | GFAH | ≤ 0.25
105 | KGPM | ≤ 0.25
106 | PMFI | ≤ 0.25
107 | FPPR | ≤ 0.25
108 | NPIE | ≤ 0.25
109 | MPSA | ≤ 0.25
110 | DLQS | ≤ 0.25
111 | RKFW | ≤ 0.25
112 | PCWT | ≤ 0.25
113 | FYHI | ≤ 0.25
114 | NGNR | ≤ 0.25
115 | TALW | ≤ 0.25
116 | TDWV | ≤ 0.25
117 | ILFT | ≤ 0.25
118 | WLGI | ≤ 0.25
119 | PETI | ≤ 0.25
120 | MMWI | ≤ 0.25

Row | Variant | enrichment ratio
121 | RMCA | ≤ 0.25
122 | WVRM | ≤ 0.25
123 | IKSA | ≤ 0.25
124 | HEES | ≤ 0.25
125 | FNAW | ≤ 0.25
126 | TFEV | ≤ 0.25
127 | HFRY | ≤ 0.25
128 | VAVA | ≤ 0.25
129 | AWLR | ≤ 0.25
130 | KQRM | ≤ 0.25
131 | FYRM | ≤ 0.25
132 | ELMD | ≤ 0.25
133 | RPPS | ≤ 0.25
134 | MGYP | ≤ 0.25
135 | IHNR | ≤ 0.25
136 | SHHV | ≤ 0.25
137 | YQSP | ≤ 0.25
138 | SSTG | 12.4
139 | ANYH | 0.253
140 | DHRR | ≤ 0.25
141 | HYLR | ≤ 0.25
142 | FQQP | 0.586
143 | MKEY | ≤ 0.25
144 | NYFS | ≤ 0.25

Row | Variant | enrichment ratio
145 | QHLN | ≤ 0.25
146 | AFWY | ≤ 0.25
147 | QIFH | ≤ 0.25
148 | PRMW | ≤ 0.25
149 | DFHY | ≤ 0.25
150 | FARD | 0.433
151 | PFTF | ≤ 0.25
152 | QHRP | ≤ 0.25
153 | GIMY | ≤ 0.25
154 | TDWS | ≤ 0.25
155 | DEPK | ≤ 0.25
156 | DHWC | ≤ 0.25
157 | NSSP | ≤ 0.25
158 | VSRH | ≤ 0.25
159 | NKAS | ≤ 0.25
160 | SCME | 7.25
161 | SGDL | ≤ 0.25
162 | EECF | ≤ 0.25
163 | QCLG | 2.4
164 | VQHK | ≤ 0.25
165 | LKHG | ≤ 0.25
166 | TIGS | 15
167 | FRCV | ≤ 0.25
168 | MTFL | 6.57

Row | Variant | enrichment ratio
169 | FYTQ | ≤ 0.25
170 | TMPV | ≤ 0.25
171 | LPRT | ≤ 0.25
172 | QCRF | ≤ 0.25
173 | LGDF | ≤ 0.25
174 | GAGN | ≤ 0.25
175 | QRGG | ≤ 0.25
176 | QLMC | ≤ 0.25
177 | HACK | ≤ 0.25
178 | FGRC | ≤ 0.25
179 | EMRD | ≤ 0.25
180 | DPGM | ≤ 0.25
181 | MQFW | ≤ 0.25
182 | PSCC | ≤ 0.25
183 | NDAN | ≤ 0.25
184 | WETL | ≤ 0.25
185 | HEPS | ≤ 0.25
186 | HHQR | ≤ 0.25
187 | TRWK | ≤ 0.25
188 | PAHQ | ≤ 0.25
189 | FLRC | ≤ 0.25
190 | FTDN | ≤ 0.25
191 | TGNY | 16.9
192 | YIYR | ≤ 0.25

Row | Variant | enrichment ratio
193 | NLWN | ≤ 0.25
194 | HMGN | ≤ 0.25
195 | TITP | ≤ 0.25
196 | STFK | ≤ 0.25
197 | DINV | ≤ 0.25
198 | IDCC | ≤ 0.25
199 | PWWY | ≤ 0.25
200 | WITI | ≤ 0.25
201 | YKAM | ≤ 0.25
202 | DWGN | ≤ 0.25
203 | LRMW | ≤ 0.25
204 | IANC | ≤ 0.25
205 | ADHL | ≤ 0.25
206 | NMAF | ≤ 0.25
207 | EKRY | ≤ 0.25
208 | FNSG | ≤ 0.25
209 | NCHC | ≤ 0.25
210 | DFVM | ≤ 0.25
211 | FDIH | ≤ 0.25
212 | IYTN | ≤ 0.25
213 | GIVM | 3.78
214 | DYER | ≤ 0.25
215 | DMTY | ≤ 0.25
216 | RHRP | ≤ 0.25

Row | Variant | enrichment ratio
217 | FCIQ | ≤ 0.25
218 | HGST | ≤ 0.25
219 | LWLH | ≤ 0.25
220 | KVND | ≤ 0.25
221 | IVDK | ≤ 0.25
222 | TWWR | ≤ 0.25
223 | RMVM | ≤ 0.25
224 | RMFT | ≤ 0.25
225 | VSKQ | ≤ 0.25
226 | KSGV | ≤ 0.25
227 | MEIN | 11.2
228 | GVIL | 4.78
229 | FDAE | ≤ 0.25
230 | HWEN | ≤ 0.25
231 | IIMT | ≤ 0.25
232 | KLEG | ≤ 0.25
233 | VNWK | ≤ 0.25
234 | DITE | ≤ 0.25
235 | YSMQ | 0.875
236 | GFVH | ≤ 0.25
237 | EFIL | ≤ 0.25
238 | NFIM | ≤ 0.25
239 | DEEC | ≤ 0.25
240 | PMYR | ≤ 0.25

Row | Variant | enrichment ratio
241 | ITRS | ≤ 0.25
242 | LRQD | ≤ 0.25
243 | KIWH | ≤ 0.25
244 | QMRM | ≤ 0.25
245 | FEGG | ≤ 0.25
246 | HCLE | ≤ 0.25
247 | VRRW | 0.561
248 | VTAT | ≤ 0.25
249 | LMKF | ≤ 0.25
250 | QRIP | ≤ 0.25
251 | KMQD | ≤ 0.25
252 | SMPH | ≤ 0.25
253 | TACL | 11.4
254 | VAYH | ≤ 0.25
255 | DDQY | ≤ 0.25
256 | FDFE | ≤ 0.25
257 | WPHN | ≤ 0.25
258 | SNMS | 12
259 | MTRP | ≤ 0.25
260 | FRVD | ≤ 0.25
261 | QTHW | ≤ 0.25
262 | APRW | ≤ 0.25
263 | MCNY | ≤ 0.25
264 | TCMP | ≤ 0.25

Row | Variant | enrichment ratio
265 | VCCH | 0.637
266 | LCPE | ≤ 0.25
267 | HRQH | ≤ 0.25
268 | VDAT | ≤ 0.25
269 | ALSI | 7.77
270 | KQLL | ≤ 0.25
271 | PMTT | ≤ 0.25
272 | FILR | ≤ 0.25
273 | ESGR | ≤ 0.25
274 | VRPK | ≤ 0.25
275 | WQKP | ≤ 0.25
276 | ADTV | 0.277
277 | AQSV | 6.04
278 | CSDL | ≤ 0.25
279 | KYRD | ≤ 0.25
280 | KLNE | ≤ 0.25
281 | SYDL | ≤ 0.25
282 | QEPC | ≤ 0.25
283 | VTLR | ≤ 0.25
284 | SIGN | 7.14
285 | YAAR | ≤ 0.25
286 | KHCW | ≤ 0.25
287 | DRNS | ≤ 0.25
288 | GLHS | ≤ 0.25

Row | Variant | enrichment ratio
289 | KRMR | ≤ 0.25
290 | YGWY | ≤ 0.25
291 | MFNR | ≤ 0.25
292 | LLPS | ≤ 0.25
293 | MKSE | ≤ 0.25
294 | PLWT | ≤ 0.25
295 | VHEF | ≤ 0.25
296 | SIHM | 0.394
297 | HKTP | ≤ 0.25
298 | AMMP | ≤ 0.25
299 | TIAR | 5.85
300 | THHQ | ≤ 0.25
301 | IKLQ | ≤ 0.25
302 | DICR | ≤ 0.25
303 | ADSI | ≤ 0.25
304 | TYLE | ≤ 0.25
305 | PIQY | ≤ 0.25
306 | INCI | ≤ 0.25
